The values that follow come from PubChem BioAssay AID360 (National Center for Advancing Translational Sciences (NCATS), 2006).

Screen size: about 48,000 compounds; about 550 (1.1%) were called active. Another 4% or so got no clear call; they are omitted. Rule as the data show it: active = potency below about 15 µM; inconclusive = mostly about 16 µM to 33 µM; inactive = weaker than that. Some of the results follow.
Potency is read from the fitted curve at half-maximal effect.

Sequence of UniProt P04062 (P04062 whole entry, looked up): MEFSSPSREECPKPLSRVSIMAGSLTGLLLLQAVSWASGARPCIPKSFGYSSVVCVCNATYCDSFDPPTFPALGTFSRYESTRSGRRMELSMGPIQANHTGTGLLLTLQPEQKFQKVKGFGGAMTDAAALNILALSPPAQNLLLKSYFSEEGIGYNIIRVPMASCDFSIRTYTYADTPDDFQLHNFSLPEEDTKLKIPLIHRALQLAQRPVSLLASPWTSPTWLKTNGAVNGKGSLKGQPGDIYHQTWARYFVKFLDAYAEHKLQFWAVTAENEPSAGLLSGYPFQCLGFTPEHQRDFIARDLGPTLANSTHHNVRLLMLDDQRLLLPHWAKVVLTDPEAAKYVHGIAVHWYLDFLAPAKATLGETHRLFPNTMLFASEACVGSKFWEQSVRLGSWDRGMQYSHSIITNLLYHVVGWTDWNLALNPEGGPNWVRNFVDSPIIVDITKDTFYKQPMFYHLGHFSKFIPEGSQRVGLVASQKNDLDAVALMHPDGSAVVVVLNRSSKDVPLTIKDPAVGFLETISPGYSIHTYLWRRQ

In the assay the target is Lysosomal acid glucosylceramidase (Homo sapiens) (UniProt P04062). Kind of assay: Glucocerebrosidase.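 Also: the screen sought inhibitors.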 The note with it: purified enzyme, resorufin glucoside fluorescence (screen aimed at inhibitors), 20 min; series mostly up to 77 µM. The essentials:
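Compounds titrated against 0.2 nM normal enzyme, 30 uM resorufin beta-D-glucopyranoside substrate, citrate/phosphate buffer with taurocholate and tween-20, pH 5.9. Reaction ran 20 min at room temperature; fluorescence (Ex 548/Em 600) gave AC50.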
Take `COc1oc(-c2ccccc2)nc1C(F)(F)F`: the Potency is inactive: > 76.9 µM.
Regarding `Cc1ccc2nc(NC3=NCN(CCN4CCOCC4)CN3)nc(C)c2c1`, the Potency was inactive: > 76.9 µM.
The result for `CSc1nc2c(c(=O)n1-c1ccccc1)SCC2` reads inactive: > 76.9 µM; that for `CCOC(=O)c1cc(-c2ccc(C)o2)nn1CCC#N`, inactive: > 76.9 µM; that for `COc1ccc(C(=O)Cn2nnc(-c3ccccc3-n3cnnn3)n2)cc1`, inactive: > 76.9 µM.
On to `C=CCOc1nc(N(C)C)nc(N(C)C)n1`, for which the Potency was inactive: > 76.9 µM.
With `CCc1ccc2nc(NC(=O)c3ccc4c(=O)[nH]c(CN5CCOCC5)nc4c3)sc2c1`, the Potency was inactive: > 76.9 µM.
Then `COCCn1c(C)cc(C(=O)COC(=O)c2c(C)nn(Cc3ccccc3)c2C)c1C`, with inactive: > 76.9 µM; and `Cc1ccc(S(=O)(=O)N2CCN(C(=O)C3COc4ccccc4O3)CC2)cc1C` (stereo not drawn), with inactive: > 76.9 µM.
In the case of `O=C(NC1CC1)C1CCCN(C(=O)Nc2ccc(F)cc2)C1` (stereo not drawn), the Potency is inactive: > 76.9 µM.
The result for `O=C(Cn1c(=O)n(-c2cccc(Cl)c2)c(=O)n1CC(=O)N1CCCCC1)N1CCCCC1` reads inactive: > 76.9 µM.
`CCOC(=O)CCN(Cc1cccs1)S(=O)(=O)c1ccc(F)cc1`: the Potency is inactive: > 76.9 µM.
Regarding `CCOc1ccc(NC(=O)CSc2nnc(C3CC3)n2N)cc1`, the Potency is inactive: > 76.9 µM.
Consider `Cc1ccc(S(=O)(=O)N2CCN(C(=O)CN3CCOCC3)C2)cc1`, for which the Potency is inactive: > 76.9 µM.
Regarding `CCn1c(COc2cccc(C)c2)nnc1SCC(=O)Nc1cccc(C(=O)OC)c1`, the Potency is inactive: > 76.9 µM.
For `CCc1nnc(NC(=O)CSc2nnc3scc(-c4ccc(C)cc4)n23)s1`, the Potency was inactive: > 76.9 µM.
Consider `Fc1cccc(Cl)c1-c1nnc2ccc(N3CCOCC3)nn12`, for which the Potency is inactive: > 76.9 µM.
For the compound `O=C(CCS(=O)(=O)c1cccc2nonc12)N1CC(=O)N(CCc2ccccc2)C(=O)C1`, the Potency was inactive: > 76.9 µM.
Then `Cc1ccc(-n2c(SCC(=O)Nc3ccc4cn[nH]c4c3)nnc2-c2ccco2)cc1`, with inactive: > 76.9 µM.
On to `N#CC1=C(C2CC2)CC(c2ccccc2)C(C#N)=C1N` (stereo not drawn), for which the Potency was inactive: > 76.9 µM.
Consider `Cc1noc(NS(=O)(=O)c2ccc(NC(=O)CCC3CCCCC3)cc2)c1C`, for which the Potency result is “inactive”.
`CC1(C)CC(=O)C(C=NCCN2CCN(CCCCS(=O)(=O)O)CC2)=C(O)C1`: the Potency was inactive: > 76.9 µM.
The result for `CCOC(=O)c1cnc(N2CCOCC2)[nH]c1=O` reads inactive: > 76.9 µM; that for `COc1ccc(-c2cc(C(=O)Nc3ccc(C)cc3)no2)cc1`, inactive: > 76.9 µM; that for `Cc1cc(NC(=O)CSc2nnc3c(C)cc4c(C)ccc(C)c4n23)no1`, inactive: > 76.9 µM.
In the case of `Cn1c(=O)[nH]c(=O)c2c1nc(NCCCO)n2CCCc1ccccc1`, the Potency was inactive: > 76.9 µM.
The result for `COc1cc2[nH]c(=O)n(CCC(=O)NCc3cccnc3)c(=O)c2cc1OC` reads inactive: > 76.9 µM; that for `Cc1ccc(N2CCCn3c2nc2c3c(=O)n(CC(=O)OCc3ccccc3)c(=O)n2C)cc1C`, inactive: > 76.9 µM.
With `Cc1nc2nc(SCC(=O)N3CCOCC3)nn2c(C)c1Cc1c(F)cccc1Cl`, the Potency is inactive: > 76.9 µM.
On to `CCc1cccc(NC(=O)C2CCCC2)c1`, for which the Potency is inactive: > 76.9 µM.
Then `CCC(=O)N1c2ccc(S(=O)(=O)CCC(=O)Nc3nccs3)cc2CC1C` (stereo not drawn), with inactive: > 76.9 µM; and `O=C(NCc1ccco1)c1cccn2c(=O)c3sccc3nc12`, with inactive: > 76.9 µM.
For `COc1ccc(CNS(=O)(=O)c2ccc(S(=O)(=O)N3CCCCC3)cc2)cc1`, the Potency is inactive: > 76.9 µM.
Take `Cc1cc(NC(=O)CCS(=O)(=O)c2nc(-c3ccccc3)cc(C(F)(F)F)n2)no1`: the Potency is inactive: > 76.9 µM.
Take `O=C(Nc1cccc2ncccc12)c1cc2ccccc2o1`: the Potency was inactive: > 76.9 µM.
The result for `CCCC(=O)Nc1ccc(Cl)c(NC(=O)c2ccco2)c1` reads inactive: > 76.9 µM; that for `O=C(CSC1CCCCC1)Nc1nccs1`, inactive: > 76.9 µM.
With `O=C(NCCCN1CCN(c2cccc(Cl)c2)CC1)c1cccc(N2CCCC2=O)c1`, the Potency is inactive: > 76.9 µM.
Take `CN1/C(=C\C(=O)c2cccs2)Sc2ccccc21`: the Potency was inactive: > 76.9 µM.
Take `Nc1ccnc(C(F)(F)F)c1C(=O)c1ccccc1`: the Potency is inactive: > 76.9 µM.
The result for `Nc1ccc(Sc2nnnn2-c2ccccc2)c(Cl)c1` reads inactive: > 76.9 µM; that for `CN(C)C(=O)N1CCC(C(=O)NCc2ccccc2Cl)CC1`, inactive: > 76.9 µM.
For `CCC(=O)N1CCN(c2ccc(Cl)cc2NC(=O)c2ccc3c(c2)OCCO3)CC1`, the Potency was inactive: > 76.9 µM.
Regarding `Cn1c(=O)c2c(ncn2CCCc2ccccc2)n(C)c1=O`, the Potency was inactive: > 76.9 µM.
`Cn1c(SCC(=O)N(C2CCCCC2)C2CCCCC2)nnc1-c1cccs1`: the Potency entry was “inactive”.
Take `CCOC(=O)CCNCC1COc2ccccc2O1` (stereo not drawn): the Potency was inactive: > 76.9 µM.
The result for `Cc1ccc(NC(=O)COS(=O)c2ccc(C)cc2)cc1` (stereo not drawn) reads inactive: > 76.9 µM.
For `CCOC(=O)N1CCC(NC(=O)Cn2ncc3c4ccccc4n(C)c3c2=O)CC1`, the Potency was inactive: > 76.9 µM.
`COCCCN1C(=O)C(=O)/C(=C(/O)c2ccc(OC(C)C)c(C)c2)C1c1ccncc1` (stereo not drawn): the Potency was inactive: > 76.9 µM.
As for `CC1Cc2cc(/C(O)=C3/C(=O)C(=O)N(CCCn4ccnc4)C3c3ccco3)ccc2O1` (stereo not drawn), the Potency is inactive: > 76.9 µM.
Then `COC(=O)CCN(C(=O)C1C2CC3CC(C2)CC1C3)c1ccccn1` (stereo not drawn), with inactive: > 76.9 µM.
Then `CCC1Oc2ccccc2N(CC(=O)NCCCN2CCCCC2CC)C1=O` (stereo not drawn), with inactive: > 76.9 µM; and `CCOc1ccc(N2C(=O)CSC2c2ccncc2)cc1` (stereo not drawn), with inactive: > 76.9 µM; and `O=C(NCc1cccnc1)c1cccc(Cl)c1`, with inactive: > 76.9 µM.
The result for `Cc1cc(C)n(-c2ccc3cccc(NS(C)(=O)=O)c3n2)n1` reads inactive: > 76.9 µM; that for `Cc1ccc(-n2ncc(C#N)c2/N=C/N2CCCCCC2)cc1`, inactive: > 76.9 µM.
For `COCCCNC(=O)C1C2C=CC3(CN(Cc4ccc(C)cc4)C(=O)C13)O2` (stereo not drawn), the Potency was inactive: > 76.9 µM.
Turning to `CCOc1ccccc1NC(=O)CSc1nnnn1-c1ccc(C(=O)OC)cc1`, the Potency is inactive: > 76.9 µM.
